Results reported in PubChem BioAssay AID1745845 (National Center for Advancing Translational Sciences (NCATS), 2022).
About 2,600 (0.72%) of roughly 360,000 compounds were called active. The inconclusive results got no clear call from the source; some entries with a clear call stand among them for comparison. Calls follow the shape of the dose curve; as a rule, active = well fitted inhibition curve with a large enough effect; inconclusive = small, poorly fitted or top-dose-only effect; inactive = no such curve, though single readings can be large or run the other way. Where the call is inconclusive, the potency comes from a doubtful curve fit.

Assay: Primary qHTS for Inhibitors of ATXN expression; also: nearly all actives have a fitted effect of over 55% in size
Settings: HEK-293 ATXN2-luciferase reporter, luminescence, 24 h; activity change, negative = inhibition: at 57 µM (top of the series)
Outline: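 qHTS (up to 57 uM final) was run with 24 h compound exposure of reporter cells at 37 °C. Each well was multiplexed: SteadyGlo luminescence measured ATXN2-luciferase expression after a fluorogenic Gly-Phe-AFC viability readout (25 uM final).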
% is scaled to controls: 0 for no effect and ±100 for the full control effect; potency is read from the fitted curve at half-maximal effect; tags tell the direction and shape of the fitted curve.

| SMILES | Potency | activity change, negative = inhibition |
| --- | --- | --- |
| O=C(NCC1CCCCC1)C1(CC2CC(c3ccc(Cl)cc3)=NO2)CCNCC1 (stereo unspecified) | inconclusive: 39.8 µM [inhibitor, single point] | – |
| Cc1ccc(NC(=O)Cc2c[nH]c3ccccc23)cc1S(=O)(=O)N1CCCCCC1 | – | inactive: -16.2% |
| CN(C(=O)c1cc2c(s1)-c1ccccc1S(=O)(=O)C2)c1ccccc1F | inconclusive: 12.6 µM [inhibitor, partial curve, poor fit] | – |
| COC(=O)N(NC(=O)C(O)(c1ccccc1)c1ccccc1)c1ccccc1 | inconclusive: 25.1 µM [inhibitor, partial curve, poor fit] | – |
| O=C(C[C@@H]1C/C=C\CC[C@H](Cc2ccc(F)cc2)C(=O)OC[C@@H]2CCCN2C1=O)N[C@H](CO)Cc1ccccc1 | inconclusive: 35.5 µM [inhibitor, single point] | – |
| CCCOc1ccc(F)cc1-c1cc(C(=O)Nc2ccc(C(C)C)cc2)[nH]n1 | inconclusive: 39.8 µM [inhibitor, single point] | – |
| COc1ccc(-n2nc(C(=O)c3cccs3)cc(-c3nc4ccccc4[nH]3)c2=N)cc1 | inconclusive: 39.8 µM [inhibitor, single point] | – |
| O=S1(=O)CCOC[C@H](CC2CCCCC2)N1Cc1cccc(C(F)(F)F)c1 | – | inactive: -26.2% |
| COc1ccc(C(=O)Nc2ccc(-c3cc(C(F)(F)F)nn3-c3ccccc3)cc2)cc1OC | inconclusive: 28.2 µM [inhibitor, single point] | – |
| COc1ccc(-c2ccc3ncc4c(c3c2)n(-c2ccc(N3CCNCC3)c(C(F)(F)F)c2)c(=O)n4C)cn1 | active: 7.69 µM | – |
| CSc1nnc(NC(=O)c2ccc3c(c2)OCO3)s1 | inconclusive: 3.16 µM [inhibitor, full curve] | – |
| CCCCc1c(-c2ccccc2OC)ncn1CCc1ccc(Cl)cc1 | inconclusive: 25.1 µM [inhibitor, single point] | – |
| COc1ccc(NC(=O)CNS(=O)(=O)c2ccc3nc(C)sc3c2)c(OC)c1 | – | inactive: 2.11% |
| CCOC(=O)c1c(NC(=O)CCl)sc(CN(C)C)c1-c1ccccc1 | inconclusive: 29.9 µM [inhibitor, partial curve, poor fit] | – |
| COc1ccc(S(=O)(=O)Cc2ccccc2)cc1N | – | inactive: 13.5% |
| COc1ccc2c(c1)c1c(c(=O)n(-c3ccccc3C)c(=O)n1CC(N)=O)n2C | – | inactive: -10.5% |
| Clc1ccc(CSc2ccc(-c3ccccn3)nn2)cc1 | inconclusive: 39.8 µM [inhibitor, single point] | – |
| C(=N\Nc1ccc2ccccc2n1)/c1ccc2c(c1)OCCO2 | inconclusive: 33.6 µM [inhibitor, single point] | – |
| Cc1ccc(Cn2c(C3CCCN3c3nc(C)cs3)nc3cc(C(F)(F)F)ccc32)cc1 (stereo unspecified) | inconclusive: 22.4 µM [inhibitor, partial curve, poor fit] | – |
| CC(=O)Nc1ccc(Nc2nc(-c3sc(C)nc3C)cs2)cc1 | inconclusive: 37.7 µM [inhibitor, partial curve, poor fit] | – |
| CCN1CCc2c(sc(NC(=O)c3ccc(S(=O)(=O)N(C)C4CCCCC4)cc3)c2C(N)=O)C1 | inconclusive: 39.8 µM [inhibitor, single point] | – |
| CC(=O)O[C@]1(C(C)=O)CC[C@H]2[C@@H]3C=C(Cl)C4=CC(=O)[C@@H]5C[C@@H]5[C@]4(C)[C@H]3CC[C@@]21C | inconclusive: 31.6 µM [inhibitor, partial curve] | – |

| SMILES | Potency | activity change, negative = inhibition |
| --- | --- | --- |
| COc1ccc(-c2csc(C(O)c3ccc(F)cc3)n2)cc1OC (stereo unspecified) | – | inactive: -0.118% |
| CCN(C(=O)CCS(=O)(=O)c1ccc2c(c1)CCN2C(C)=O)c1cccc(C(F)(F)F)c1 | – | inactive: -12.3% |
| COc1cc(OC)cc(C(=O)Nc2ccc3nc4c(c(Nc5ccc(OC)c(OC)c5)c3c2)CCCC4)c1 | active: 20 µM | – |
| S=c1[nH]nc(Cc2noc3ccccc23)n1-c1ccc(Cl)cc1 | – | inactive: -13.9% |
| CC1CCCCN1C(=O)COC(=O)c1cc([N+](=O)[O-])ccc1N (stereo unspecified) | – | inactive: 18.1% |
| O=C(Nc1ccc2nc3n(c(=O)c2c1)CCCCC3)c1ccccc1[N+](=O)[O-] | – | inactive: 1.36% |
| CN(C)CCCN(C(=O)c1ccc(C(=O)c2ccccc2)cc1)c1nc2cc3c(cc2s1)OCO3 | inconclusive: 20 µM [inhibitor, partial curve, poor fit] | – |
| CC(C)c1cc(-c2n[nH]c(=O)n2-c2ccc3c(ccn3C)c2)c(O)cc1O | active: 0.0769 µM | – |
| COc1ccc(N2CCN(C(=O)CN3CCSc4ccccc43)CC2)cc1 | – | inactive: -6.56% |
| O=C(C1=C[C@@H](c2csc3ccccc23)C[C@@H](OCCCCO)O1)N1CCN(Cc2ccc3c(c2)OCO3)CC1 | inconclusive: 22.4 µM [inhibitor, single point] | – |
| CC(C)NC(=O)c1ccc2c3n(nc2c1)-c1ccccc1CO3 | inconclusive: 15.8 µM [inhibitor, single point] | – |
| NC(=O)c1nc(-c2cccs2)nc2c1[nH]c(=O)n2-c1ccc(F)cc1 | inconclusive: 3.16 µM [inhibitor, single point] | – |
| O=C1NC(=S)S/C1=C\C=C\c1ccc([N+](=O)[O-])o1 | inconclusive: 3.16 µM [inhibitor, full curve, poor fit] | – |
| OC(COCC(F)(F)C(F)(F)C(F)(F)C(F)F)Cn1c2ccc(Cl)cc2c2cc(Cl)ccc21 (stereo unspecified) | inconclusive: 35.5 µM [inhibitor, single point] | – |
| O=C(O)c1ccccn1 | inactive | – |
| COc1ccc(COC(=O)c2ccc(C)c(S(=O)(=O)N3CCOCC3)c2)cc1F | inconclusive: 39.8 µM [inhibitor, single point] | – |
| CCC1CCCCN1S(=O)(=O)c1ccc(C(=O)N(CCCN(C)C)c2nc3cc4c(cc3s2)OCO4)cc1 (stereo unspecified) | inconclusive: 39.8 µM [inhibitor, single point] | – |
| CN(c1ccccc1)S(=O)(=O)c1cccc(NC(=O)Cc2n[nH]c(=O)c3ccccc23)c1 | – | inactive: -20.2% |
| O=C1/C(=C\c2cccc([N+](=O)[O-])c2O)SC(=S)N1Cc1ccccc1 | inconclusive: 28.2 µM [inhibitor, single point] | – |
| Cc1[nH]nc(-c2ccc(OCc3cnn(-c4ccccc4)c3)cc2O)c1Oc1ccc(Cl)cc1 | inconclusive: 12.6 µM [inhibitor, partial curve, poor fit] | – |
| Cc1cccc(NC(=S)/N=C(\N)Nc2nc(C)c3ccc(C)cc3n2)c1 | – | inactive: -22.1% |
| CCOC(=O)c1cccc(C2=CC(=O)C[C@H](c3ccc(OC)c(OC)c3)C2)c1 | inconclusive: 17.8 µM [inhibitor, partial curve] | – |

| SMILES | Potency | activity change, negative = inhibition |
| --- | --- | --- |
| CCCc1c2oc(C(=O)O)cc(=O)c2cc2c(=O)cc(C(=O)O)n(CC)c12 | – | inactive: 3.26% |
| CCCCC[n+]1ccn(C2=C([O-])c3ccccc3C(=O)/C2=N\S(=O)(=O)c2ccccc2)c1 | inconclusive: 28.2 µM [inhibitor, partial curve, poor fit] | – |
| COc1ccc(C(=O)NNC(=S)NC(=O)c2ccc(Cl)cc2)cc1 | inconclusive: 25.1 µM [inhibitor, single point] | – |
| CCOC(=O)/C(=N\Nc1ccc(Br)cc1)N1CCN(c2ccccc2OC)CC1 | – | inactive: -2.25% |
| CCCCCCCN1C(Nc2ccccc2)=NC[C@@H]1CC(C)C | – | inactive: -20.3% |
| O=C(O)c1cccc(CN2C(=O)SC(Nc3ccccc3)C2=O)c1 (stereo unspecified) | – | inactive: 3.72% |
| Cc1[nH][nH]c(=O)c1C(c1c(C)[nH][nH]c1=O)c1cn(Cc2ccc(Cl)c(Cl)c2)c2ccccc12 | inconclusive: 25.1 µM [inhibitor, partial curve, poor fit] | – |
| CCOC(=O)C1=C(COC(=O)c2cc(S(=O)(=O)N(C)C)ccc2C)NC(=O)NC1C (stereo unspecified) | – | inactive: -14.4% |
| COc1ccccc1-c1cccc(-c2nc(C(=O)Nc3nccs3)cc3c2[C@H](CCO)N(C(C)=O)C3)c1 | inconclusive: 39.8 µM [inhibitor, partial curve, poor fit] | – |
| Cc1cc2cc(CCNS(=O)(=O)c3ccc(Br)cc3)c(=O)[nH]c2cc1C | inconclusive: 22.4 µM [inhibitor, single point] | – |
| COc1cc2c(cc1OC)CN(C(=O)c1oc3ccccc3c1C)CC2 | inconclusive: 35.5 µM [inhibitor, single point] | – |
| CC1=NN(c2ccc(C)c(C)c2)C(=O)/C1=C\C=C\c1ccc([N+](=O)[O-])o1 | inconclusive: 3.98 µM [inhibitor, partial curve, poor fit] | – |
| COc1ccc(CCn2c(=S)[nH]c3cc(C(=O)NCc4ccco4)ccc3c2=O)cc1OC | inconclusive: 28.2 µM [inhibitor, single point] | – |
| CCc1nc2oc3ccccc3c(=O)c2c(=O)n1-c1ccc(C)cc1 | – | inactive: 110% |
| Fc1ccccc1NC(=S)N1CCN(C/C=C/c2ccccc2)CC1 | – | inactive: -9.7% |
| Cc1c(C(=O)N2CCN(c3ccc([N+](=O)[O-])cc3)CC2)oc2ccccc12 | inconclusive: 14.1 µM [inhibitor, partial curve, poor fit] | – |
| O=C(Nc1ccc(-n2cccn2)cc1)C1CCCCN1Cc1cccc2cccnc12 (stereo unspecified) | inconclusive: 39.8 µM [inhibitor, single point] | – |
| Cc1c(Cl)cccc1NC(=S)NCCN1CCOCC1 | – | inactive: 3.05% |
| CC1=NN(c2ccccc2)C(=O)C1C(=O)c1ccc(Cl)cc1 (stereo unspecified) | inconclusive: 39.8 µM [inhibitor, partial curve, poor fit] | – |
| Cc1nnc(SCC(=O)Nc2cccc(S(=O)(=O)N(C)c3ccccc3)c2)s1 | – | inactive: 0.166% |
| CC(C)c1ccc(NC(=O)C2CCN(S(=O)(=O)c3ccc(Br)s3)CC2)cc1 | – | inactive: -9.1% |
| O=S(=O)(c1cccc(-c2csc(N/N=C/c3ccco3)n2)c1)N1CCOCC1 | inconclusive: 39.8 µM [inhibitor, single point] | – |
